In the supplement of paper PMC3334620:
In all, about 33,000 sequences were measured (“E-score (-0.5 to 0.5)”: median about -0.054, highest 2% from about 0.35 on). Some of the results follow.

Target: T1, Stb5 (UniProt P38699)
T1 sequence: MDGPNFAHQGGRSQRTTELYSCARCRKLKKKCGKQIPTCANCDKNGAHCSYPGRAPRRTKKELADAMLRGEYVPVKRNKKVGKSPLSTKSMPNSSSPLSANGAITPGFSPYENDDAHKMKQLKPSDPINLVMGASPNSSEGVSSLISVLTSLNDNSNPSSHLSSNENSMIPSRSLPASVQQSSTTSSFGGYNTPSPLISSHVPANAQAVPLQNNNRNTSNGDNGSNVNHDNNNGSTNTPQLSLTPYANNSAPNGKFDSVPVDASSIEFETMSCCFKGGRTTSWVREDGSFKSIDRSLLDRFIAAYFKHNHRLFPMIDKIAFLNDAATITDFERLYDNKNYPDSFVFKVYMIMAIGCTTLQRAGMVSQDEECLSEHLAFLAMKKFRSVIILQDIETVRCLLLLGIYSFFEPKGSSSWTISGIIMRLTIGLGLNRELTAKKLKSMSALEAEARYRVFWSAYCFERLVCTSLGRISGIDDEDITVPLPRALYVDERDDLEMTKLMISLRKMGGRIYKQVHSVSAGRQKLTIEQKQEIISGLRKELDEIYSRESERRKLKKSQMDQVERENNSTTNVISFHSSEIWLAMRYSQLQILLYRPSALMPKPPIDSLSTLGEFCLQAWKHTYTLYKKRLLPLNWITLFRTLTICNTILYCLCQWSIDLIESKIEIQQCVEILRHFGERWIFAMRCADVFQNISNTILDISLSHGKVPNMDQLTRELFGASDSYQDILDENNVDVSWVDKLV
Assay: PBM E-score (8-mer binding enrichment) (E-score (-0.5 to 0.5)); higher = stronger / more preferred TF binding; most listed sequences are background and not binding sites
Details: protein concentration: 200 nM; construct: GST-full length
How it was run: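 Detection of bound protein used fluorescent anti-GST, with scans normalised by masliner. The proteins were GST-tagged yeast transcription factors applied at about 100-200 nM to universal all-10-mer Agilent arrays made double-stranded by primer extension. Each ungapped eight-base word, pooled with its reverse complement, was scored with an E-score from the Universal PBM Analysis Suite.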

Sequence	PBM E-score
CGGTGCGA	0.384
AATTGGAA	-0.0303
CCAGACGG	0.179
ACAACTCA	-0.164
ACGTGGGA	-0.265
GTACTCAA	-0.185
AATTCGAT	0.133
AGGCTATC	-0.0947
AGAGGTTA	-0.0424
AATCACCG	0.441
AATAGGAA	-0.233
CCGCTATA	0.302
TGCCGAAA	0.252
GAGCCTGC	-0.224
AAACGGAC	0.282
CTTAAGAA	-0.172
CTCATTCA	-0.195
CATTATAC	0.0862
CCAGCCTC	-0.288
GCGTTGGA	-0.053
ATGAGCCC	0.162
TAAAGCCA	-0.1
AAGGCGCC	0.135
CCAAGTCC	0.0932
TCATGTCA	-0.301

Sequence	PBM E-score
CTGGGATC	-0.1
ACGTCCTG	-0.238
CAGAATAG	-0.24
GCCCGGAA	0.128
ACAAGGCT	-0.171
CTAACATC	-0.0323
TACTCCGA	0.234
TACGTCGA	-0.126
CCACCGCG	0.3
CCTGTCCA	-0.279
CCAGTGAG	-0.17
AATCGTCC	0.0731
CAAGCTGA	-0.184
CTTCCTTA	-0.182
GATGTTGA	-0.138
CCCTGTGC	-0.0362
ACCCTACT	-0.0942
AAGGGGCA	-0.221
GGGGTTTA	0.329
CAGTTGCC	-0.0751
AAATGGGT	-0.143
ATTATGGA	0.0112
GCACAACC	-0.0867
CAAATCTC	-0.0196
CTGATCTC	-0.308

Sequence	PBM E-score
AGTTTCGG	0.108
GAAACGCC	0.279
TGCAGCAA	-0.194
GAGGCATC	-0.282
CCGGGGGA	0.219
AGACAGGA	-0.266
ATGCAATG	-0.0465
ATCGCTGC	0.125
AGCCGGCG	0.248
TCCGTAAA	0.175
GTAGAGCA	-0.111
ACACGACA	-0.226
ACAACGAT	-0.00466
CAGGCCGA	0.153
CCCTCGGA	0.192
CGACCCAG	0.125
CTTCTCAC	-0.0879
CCTCGCAC	-0.0558
TCTGACCA	-0.317
AGCGCTCG	0.114
ACTCTGGG	-0.196
ATGGATTA	-0.193
ACATGGCT	-0.131
AGTTGGTG	-0.103
CCTCATAA	-0.087

Sequence	PBM E-score
CCACCGGA	0.329
ACAACCAC	0.0443
GCGGCGAC	0.297
ATCATTGC	-0.147
TGATACCA	0.0905
CTTCGGAC	0.223
AGACAAGC	-0.166
AAACGCTC	-0.00871
CGTAGCAC	0.0605
TCGATGCA	-0.2
AATTGGGT	-0.154
GAGAGATC	-0.118
AAATCGAC	-0.0539
ATCGCCCA	-0.255
CTGACGTC	-0.289
AAAGAGAA	-0.00974
ACCAACAA	-0.199
CCCTTTCC	0.0224
CCTCAAGA	-0.188
AGGTAACT	-0.122
ATGGCCAG	-0.178
AGCGAAAA	-0.0961
TCAACGAA	-0.00134
CTTGTTTA	-0.00122
ACTTTCCC	0.178

Sequence	PBM E-score
CAATCTTA	-0.142
AACGCGGT	0.243
GTATGCCA	-0.162
ACCAGCGG	0.251
CCGTGATC	0.0557
ACCTTGCA	-0.23
ACGACGAA	-0.0817
ACTCTACT	-0.197
CCCCCAGA	-0.249
AGAGAAGA	-0.152
TTGAAAAA	-0.186
AAAGTCTT	-0.135
CGTAATTC	0.0295
AACTTATG	-0.125
CACCCAAC	-0.144
ATTGCGTC	0.0727
CTTAACCC	0.129
ACTTGCAG	-0.236
CGCCAGTC	0.131
ATAAGCTA	-0.125
ACCTACTC	-0.115
AGCCGGCC	0.111
AAGCTTGA	-0.0796
AAGTCAGA	-0.103
CACGGTCA	0.0858

Sequence	PBM E-score
GAAATATC	0.151
GCCCAAAC	-0.0152
AGTATGTC	-0.178
CACCTACA	-0.0718
ATTAGATC	0.124
GCAAGCTA	-0.239
AACTGACT	-0.0187
GCGTACAC	-0.0888
ATCGGATG	0.168
CTTGCAGC	-0.116
AACGTAAG	-0.215
GATTCTGA	-0.00721
CAATACTG	-0.203
ATCTTTAC	0.0505
TAATCGTA	-0.118
CCCAAAAA	-0.103
AGAGGATC	-0.332
TCCTGAGA	-0.0464
AAGTAATA	0.0108
GTCCACAA	-0.26
GCACACAC	-0.151
ACCTAATG	-0.156
CCGCCTAC	0.217
CCAAGAAC	-0.0658
AGTTCAAT	-0.12

Sequence	PBM E-score
ACTACAAA	-0.0958
TTAGCTAA	-0.219
CGGTCCGC	0.298
ACCACAAG	-0.197
ACGATCCG	0.126
ATTGCGTG	-0.00502
GGTCGAGA	-0.178
ATGTCGAG	-0.144
CCGGTGCC	0.328
ATGCCATC	-0.0344
AACCCGGA	0.205
ACCTAGCC	0.0595
AGGCTGTG	-0.258
GTTCAGTA	-0.132
ACGCGGTA	0.215
GCATATAC	0.156
CTCGGATC	0.115
CAACTCTG	-0.0585
AACAGACC	-0.00407
CGTTATCC	0.102
CCTGACCG	-0.0108
CATTCGCC	0.0286
